# The supplement of paper PMC10037445
# The full ranking holds about 2,900 compounds; the median of “IRF Lucia reporter activity, fold change vs agonist alone” is about 0.9, and the highest 2% start at about 2.8. Some of the results follow.
# How the values were obtained:
# RAW-Dual [1] = assay: IRF Lucia reporter activity, fold change vs agonist alone; higher = enhanced IRF activity; conditions: cytotoxicity flag (confluency mask): not cytotoxic, agonist: MPLA (TLR4) […]
# In short: (§1)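 Library stock was pin-tooled at 50 nL into 384-well plates of RAW-Dual macrophages (50,000 cells/well, DMEM), followed 1 h later by a PRR agonist, and the cells were kept at 37 °C, 5% CO2. Supernatant collected after 20 hours was read for IRF by QuantiLuc luminescence and for NF-κB by QuantiBlue absorbance at 620 nm. Reporter activity is fold change over agonist-alone wells, and a well counted as cytotoxic when its IncuCyte confluency was below 70% of agonist controls in both mask sets.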
# RAW-Dual [2] = assay: IRF Lucia reporter activity, fold change vs agonist alone; cytotoxicity flag (confluency mask): cytotoxic (confluency <70% of control); higher = enhanced IRF activity
# In short: as §1
# RAW-Dual [3] = assay: IRF Lucia reporter activity, fold change vs agonist alone; cytotoxicity flag (confluency mask): not cytotoxic; higher = enhanced IRF activity
# In short: as §1
# [4] = library stock concentration (final ~1000-fold dilution): 10 mM
# [5] = agonist: 3'3'-cGAMP (STING) 10 ug/mL
compound,measurement,setting,value
CCc1c(O)cc(O)c(C(=O)c2ccc(OCCN3CCOCC3)c(OC)c2)c1CC(=O)N(CCOC)CCOC,IRF Lucia reporter activity,RAW-Dual [1]; [4],0.951
Cc1cc2c(C(N)=O)cccc2n1-c1nc2c(c(NCc3ccccc3)n1)COCC2 (library stock concentration (final ~1000-fold dilution): 10 mM),IRF Lucia reporter activity,RAW-Dual [2]; [5],0.0146
same,IRF Lucia reporter activity,RAW-Dual [2]; agonist: LPS (TLR4) 0.1 ug/mL,0.478
Cc1coc2c1C(=O)C(=O)c1c-2ccc2c1CCCC2(C)C,IRF Lucia reporter activity,RAW-Dual [1]; [4],0.627
Cc1coc2c1C(=O)C(=O)c1c-2ccc2c1CCCC2(C)C (library stock concentration (final ~1000-fold dilution): 10 mM),IRF Lucia reporter activity,RAW-Dual [3]; [5],0.536
same,IRF Lucia reporter activity,RAW-Dual [3]; agonist: LPS (TLR4) 0.1 ug/mL,0.587
COc1cc(C(=O)O)ccc1NC(=O)C1NC(CC(C)(C)C)C(C#N)(c2ccc(Cl)cc2F)C1c1cccc(Cl)c1F (centres undefined) (library stock concentration (final ~1000-fold dilution): 10 mM),IRF Lucia reporter activity,RAW-Dual [3]; [5],0.62
same,IRF Lucia reporter activity,RAW-Dual [3]; agonist: LPS (TLR4) 0.1 ug/mL,0.186
COc1cc(C(=O)O)ccc1NC(=O)C1NC(CC(C)(C)C)C(C#N)(c2ccc(Cl)cc2F)C1c1cccc(Cl)c1F (centres undefined),IRF Lucia reporter activity,RAW-Dual [1]; [4],0.67
CCN(CCO)CCCC(C)Nc1ccnc2cc(Cl)ccc12.O=S(=O)(O)O (centres undefined) (library stock concentration (final ~1000-fold dilution): 10 mM water),IRF Lucia reporter activity,RAW-Dual [3]; [5],0.923
same,IRF Lucia reporter activity,RAW-Dual [3]; agonist: LPS (TLR4) 0.1 ug/mL,0.914
CCN(CCO)CCCC(C)Nc1ccnc2cc(Cl)ccc12.O=S(=O)(O)O (centres undefined),IRF Lucia reporter activity,RAW-Dual [1]; library stock concentration (final ~1000-fold dilution): 10 mM water,1.13
CC(=O)OC12COC1CC(O)C1(C)C(=O)C(O)C3=C(C)C(OC(=O)C(O)C(NC(=O)OC(C)(C)C)c4ccccc4)CC(O)(C(OC(=O)c4ccccc4)C21)C3(C)C.O.O.O (centres undefined) (library stock concentration (final ~1000-fold dilution): 10 mM),IRF Lucia reporter activity,RAW-Dual [3]; [5],0.558
same,IRF Lucia reporter activity,RAW-Dual [3]; agonist: LPS (TLR4) 0.1 ug/mL,0.974
Nc1nc2cc(-c3ccc4ncc(C(=O)N5CCOCC5)n4c3)ccc2o1 (library stock concentration (final ~1000-fold dilution): 10 mM),IRF Lucia reporter activity,RAW-Dual [3]; [5],0.343
same,IRF Lucia reporter activity,RAW-Dual [3]; agonist: LPS (TLR4) 0.1 ug/mL,1.04
COc1cccc2cc(-c3nc(C4CCC(C(=O)O)CC4)n4ncnc(N)c34)[nH]c12 (centres undefined) (library stock concentration (final ~1000-fold dilution): 10 mM),IRF Lucia reporter activity,RAW-Dual [3]; [5],0.354
same,IRF Lucia reporter activity,RAW-Dual [3]; agonist: LPS (TLR4) 0.1 ug/mL,0.855
COc1cccc2cc(-c3nc(C4CCC(C(=O)O)CC4)n4ncnc(N)c34)[nH]c12 (centres undefined),IRF Lucia reporter activity,RAW-Dual [1]; [4],0.765
CCC(C(=O)O)c1ccc(N2Cc3ccccc3C2=O)cc1 (centres undefined),IRF Lucia reporter activity,RAW-Dual [1]; [4],1.04
CCC(C(=O)O)c1ccc(N2Cc3ccccc3C2=O)cc1 (centres undefined) (library stock concentration (final ~1000-fold dilution): 10 mM),IRF Lucia reporter activity,RAW-Dual [3]; [5],0.977
same,IRF Lucia reporter activity,RAW-Dual [3]; agonist: LPS (TLR4) 0.1 ug/mL,1.31
CC1OC(OC2C(CO)OC(OCC3OC(OC(=O)[C@]45CC[C@@H](C)[C@H](C)[C@H]4C4=CCC6[C@@]7(C)C[C@@H](O)[C@@H](O)[C@@](C)(CO)C7CC[C@@]6(C)[C@]4(C)CC5)C(O)C(O)C3O)C(O)C2O)C(O)C(O)C1O (some centres undefined) (library stock concentration (final ~1000-fold dilution): 10 mM),IRF Lucia reporter activity,RAW-Dual [3]; [5],0.357
same,IRF Lucia reporter activity,RAW-Dual [3]; agonist: LPS (TLR4) 0.1 ug/mL,0.657
Oc1ccc(-c2c(-c3ccccc3)nn3c(C(F)(F)F)cc(C(F)(F)F)nc23)cc1 (library stock concentration (final ~1000-fold dilution): 10 mM),IRF Lucia reporter activity,RAW-Dual [3]; [5],1.18
same,IRF Lucia reporter activity,RAW-Dual [3]; agonist: LPS (TLR4) 0.1 ug/mL,0.89
NC1CC1c1ccc(-c2cccc(O)c2)cc1 (centres undefined) (library stock concentration (final ~1000-fold dilution): 10 mM),IRF Lucia reporter activity,RAW-Dual [3]; [5],0.33
same,IRF Lucia reporter activity,RAW-Dual [3]; agonist: LPS (TLR4) 0.1 ug/mL,1.1
NC1CC1c1ccc(-c2cccc(O)c2)cc1 (centres undefined),IRF Lucia reporter activity,RAW-Dual [1]; [4],1.07
CS(=O)(=O)N1CCN(Cc2cc3nc(-c4cccc5[nH]ncc45)nc(N4CCOCC4)c3s2)CC1 (library stock concentration (final ~1000-fold dilution): 10 mM),IRF Lucia reporter activity,RAW-Dual [3]; [5],0.224
same,IRF Lucia reporter activity,RAW-Dual [3]; agonist: LPS (TLR4) 0.1 ug/mL,1.18
CS(=O)(=O)N1CCN(Cc2cc3nc(-c4cccc5[nH]ncc45)nc(N4CCOCC4)c3s2)CC1,IRF Lucia reporter activity,RAW-Dual [1]; [4],0.874
O=C(O)Cn1c2c(c3cc(F)ccc31)CN(C(=O)c1cccc3ccccc13)CC2,IRF Lucia reporter activity,RAW-Dual [1]; [4],1.03
O=C(O)Cn1c2c(c3cc(F)ccc31)CN(C(=O)c1cccc3ccccc13)CC2 (library stock concentration (final ~1000-fold dilution): 10 mM),IRF Lucia reporter activity,RAW-Dual [3]; [5],0.969
same,IRF Lucia reporter activity,RAW-Dual [3]; agonist: LPS (TLR4) 0.1 ug/mL,0.879
COc1ccccc1N1CCN(CCN2C(=O)CC3(CCCC3)CC2=O)CC1.Cl.Cl,IRF Lucia reporter activity,RAW-Dual [1]; [4],0.94
COc1ccccc1N1CCN(CCN2C(=O)CC3(CCCC3)CC2=O)CC1.Cl.Cl (library stock concentration (final ~1000-fold dilution): 10 mM),IRF Lucia reporter activity,RAW-Dual [3]; [5],1.06
same,IRF Lucia reporter activity,RAW-Dual [3]; agonist: LPS (TLR4) 0.1 ug/mL,1.01
Nc1nc(F)nc2c1ncn2C1OC(CO)C(O)C1O (centres undefined),IRF Lucia reporter activity,RAW-Dual [1]; [4],0.733
Nc1nc(F)nc2c1ncn2C1OC(CO)C(O)C1O (centres undefined) (library stock concentration (final ~1000-fold dilution): 10 mM),IRF Lucia reporter activity,RAW-Dual [3]; [5],1.01
same,IRF Lucia reporter activity,RAW-Dual [3]; agonist: LPS (TLR4) 0.1 ug/mL,0.922
COC(=O)C1=C(C)NC(C)=C(C(=O)OC2CCCN(Cc3ccccc3)C2)C1c1cccc([N+](=O)[O-])c1.Cl (centres undefined),IRF Lucia reporter activity,RAW-Dual [1]; [4],1.23
COC(=O)C1=C(C)NC(C)=C(C(=O)OC2CCCN(Cc3ccccc3)C2)C1c1cccc([N+](=O)[O-])c1.Cl (centres undefined) (library stock concentration (final ~1000-fold dilution): 10 mM),IRF Lucia reporter activity,RAW-Dual [3]; [5],0.184
same,IRF Lucia reporter activity,RAW-Dual [3]; agonist: LPS (TLR4) 0.1 ug/mL,1.61
